Data as given in PubChem BioAssay AID1240 (Sanford-Burnham Center for Chemical Genomics, 2008).
Among all 50,000 compounds or so, about 800 (1.6%) showed an effect of 50% or more. The list shows a part of the results.

Target: Bcl-2-like protein 10 (Homo sapiens) (UniProt Q9HD36)
Experiment: TR3 peptide-Bcl-B binding displacers, biochemical primary FP assay, phenotype converters (AID 1240);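 further: 0% = Bcl-B with tracer peptide and DMSO and 100% = tracer peptide lacking Bcl-B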
Conditions: GST-Bcl-B / FITC-TR3 peptide fluorescence polarization; stronger effect = higher value; compound at 3.75 mg/L

UniProt Q9HD36, sequence (Q9HD36 whole entry, looked up): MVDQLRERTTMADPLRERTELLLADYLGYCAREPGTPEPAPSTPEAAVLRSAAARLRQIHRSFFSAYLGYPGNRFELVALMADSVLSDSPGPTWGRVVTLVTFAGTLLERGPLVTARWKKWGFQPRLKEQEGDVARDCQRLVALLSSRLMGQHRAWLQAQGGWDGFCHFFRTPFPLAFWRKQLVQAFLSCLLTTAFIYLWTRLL

Compound | displacement
O=C(N/N=C/c1cc(Cl)cc(Br)c1O)c1ccccc1[N+](=O)[O-] | 8%
Cc1cccc(-c2noc(-c3ccc(C)c([N+](=O)[O-])c3)n2)c1 | 76.1%
CCC(C)NC(=O)CN(c1ccc(OC)cc1OC)S(=O)(=O)c1ccc(C)cc1 (stereo not drawn) | 0.7%
CC1=C(C(=O)OC2CCCC2)C(c2cccc(F)c2)C2=C(CC(C)(C)CC2=O)N1 (stereo not drawn) | 21.9%
C=CCn1c(-c2nonc2NC(C)=O)nc2ccccc21 | -0.4%
COc1ccc(/C(N)=N/OC(=O)c2ccccc2I)cc1 | 2.2%
CCCOc1ccc(N/C(N)=N/c2nc(C)cc(C)n2)cc1 | -7.1%
CCn1c(C)[n+](CC)c2ccc(S(=O)(=O)N3CCCCC3)cc21 | 17.9%
CCOc1ccc(N2C(=O)S/C(=C\c3ccc(OC)cc3)C2=O)cc1 | 13.2%
C=CCNC(=S)NC(=O)/C=C/c1ccco1 | 7.4%
Cc1cccc(CC2CC(=O)N(CCc3ccc4c(c3)OCO4)C2=O)c1 (stereo not drawn) | 9.5%
O=C1NC(=S)NC(=O)C1=Cc1ccc(Cl)cc1Cl | 10.9%
COc1ccc(NC(=O)CN(c2ccc(Br)cc2)S(C)(=O)=O)cc1OC | -11.5%
COc1cccc(/C=N/N2CCN(Cc3cccc4ccccc34)CC2)c1 | 11.9%
Cc1cc(OC(=O)c2ccc(Cl)c([N+](=O)[O-])c2)ccc1C(C)C | 6.2%
CN1C(=O)/C(=C\c2cccc(OCc3ccc(Cl)cc3Cl)c2)SC1=S | -5.1%
COc1nsnc1NS(=O)(=O)c1ccc(NC(=S)NC(=O)c2sc3cc(F)ccc3c2Cl)cc1 | 15.4%
O=c1[nH]c(=O)n(-c2cccc(Br)c2)c(O)c1/C=C1\C=Nc2ccccc21 | 33.4%
CCOC(=O)C(Oc1ccc2c(oc(=O)c3ccccc32)c1C)c1ccccc1 (stereo not drawn) | -5.8%
O=C(COc1ccc([N+](=O)[O-])cc1)Nc1cc(-c2nc3ccccc3s2)ccc1Cl | 9%
O=C(CSc1nc2ccccc2n1Cc1ccccc1)N/N=C/c1cccs1 | -0.3%
CCC(C)OC(=O)C1=C(C)NC2=C(C(=O)CCC2)C1c1cccs1 (stereo not drawn) | -12.7%
COc1ccc(/C=C2/NC(=S)NC2=O)c2ccccc12 | -8.3%
CCOC(=O)c1c[nH]c2c(C)ccc(Cl)c2c1=O | 10.3%
CC(=NCc1ccccc1)c1c(O)[nH]c2ccccc12 | -10.2%
COc1nc(N/N=C\c2ccc3c(c2)OCO3)nc(N2CCOCC2)n1 | 2.3%
O=C(COc1ccccc1)Nc1nc(-c2ccc3c(c2)Cc2ccccc2-3)cs1 | 8.6%

Compound | displacement
O=C(O)CCCCCN1C(=O)C(=O)/C(=C(/O)c2ccc(Cl)cc2)C1c1ccc([N+](=O)[O-])cc1 (stereo not drawn) | -7.8%
COc1ccccc1NC(=O)c1cc(-c2cccs2)nc2ccccc12 | -3.7%
O=C(Nc1cccc(Cl)c1)Nc1nnc(CSCc2ccc(Cl)cc2Cl)s1 | 11.6%
COC(=O)COc1ccc(/C=C2\C(=O)NC(=S)N(c3ccc(F)cc3)C2=O)cc1OC | -3.2%
COc1cc(C2Nc3ccccc3NC3=C2C(=O)CCC3)ccc1O (stereo not drawn) | 3.3%
Cc1ccc(/C(N)=N/OC(=O)c2ccc(I)cc2)cc1 | 4.3%
O=C1C(=O)N(CCc2ccccc2)C2C=CC=CC12 (stereo not drawn) | 1.1%
CN1C(=O)C(=Cc2cccc(Br)c2)C(=O)N(C)C1=O | 2%
CC(C)CC(=O)N1CCN(S(=O)(=O)c2ccc(Cl)cc2)CC1 | -5.8%
Oc1ccc(-c2nc(-c3ccccc3)c(-c3cccs3)[nH]2)cc1O | 13.9%
CC(C)N(Cc1ccccc1)S(=O)(=O)c1ccc(F)cc1 | 12.3%
O=C1CC(c2ccccc2)CC(O)=C1C=NCC1CCCO1 (stereo not drawn) | 39.8%
NC1=NC2(CCCCC2)N=C(Nc2cccc3ccccc23)N1 | -9%
Cc1ccc(OCC(=O)Nc2ccc3oc(-c4cccnc4)nc3c2)c(C)c1 | 10.5%
Cc1cc(/C=C2\C(=O)NC(=O)N(c3ccc(Cl)cc3)C2=O)c(C)n1-c1cccnc1 | -3.5%
O=C(Nc1ccccc1C(=O)N1CCN(Cc2ccccc2)CC1)c1ccccc1Cl | -4.9%
CN1C(=O)/C(=C/c2ccc(-c3ccc([N+](=O)[O-])cc3)o2)SC1=S | -0.4%
COc1ccc(Br)cc1/C=C/C(=O)Nc1ccc(F)c([N+](=O)[O-])c1 | 8.1%
COc1ccc(C2CC(=O)C(C)(C)O2)cc1 (stereo not drawn) | 10.9%
CCOC(=O)c1c(-n2ncnc2-c2ccc([N+](=O)[O-])cc2)sc2c1CCCC2 | 6.5%
Cc1ccc(CNC(=O)C(=O)Nc2ccc(Br)cc2)cc1 | -0.7%
COc1ccc(N2C(=O)NC(=O)/C(=C\c3ccc(OCC(=O)O)c(Br)c3)C2=O)cc1 | -20%
COc1cc(/C=C2\SC(N)=NC2=O)cc(OC)c1 | -9.9%
COc1ccc(NC(=O)CN(c2ccc(C)cc2)S(=O)(=O)c2ccc(SC)cc2)c(OC)c1 | -6.8%
Cc1ccc(NCC(=O)N/N=C\c2cccc(O)c2)cc1 | 5.1%
COc1cc(/C=N/NC(=O)CSCc2cc(C)cc(C)c2)cc(OC)c1OC | 6.1%
